IC50 is the fitted dose that halves viability relative to control wells, and lower means more sensitive; a fit beyond the top or the lowest dose is shown as a bound at that dose. AUC is the area under the same curve over the 256-fold range up to the top dose, as a fraction: 1 means no effect, lower means more sensitive. A top dose marked as inferred comes from the curve model; the source does not state it.
How the values were obtained:
Assay in all cases: Viability of human cancer cell lines after 72 h of drug (GDSC screen)
XMD8-92 = compound: CCOc1cc(N2CCC(O)CC2)ccc1Nc1ncc2c(n1)N(C)c1ccccc1C(=O)N2C [XMD8-92]; conditions: top dose 10 µM; top dose inferred
Method: (§1)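 Human cancer cell lines in 384-well plates, medium with 10% serum, drug for 72 h over a 256-fold dose range (nine 2-fold or five 4-fold steps up to the top dose). Adherent lines were fixed and stained with the nucleic acid dye Syto60, suspension lines read with resazurin; signal relative to control wells, capped at 0 and 100%. One two-parameter sigmoid per drug and line, fitted in a mixed model over all curves with the slope shared within a line.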

ACHP (KIN001-260) = compound: N#Cc1c(C2CCNCC2)cc(-c2c(O)cccc2OCC2CC2)nc1N [ACHP (KIN001-260)]; conditions: top dose 20 µM; top dose inferred
Method: as §1

CAY10603 = compound: CC(C)(C)OC(=O)Nc1ccc(-c2cc(C(=O)NCCCCCCC(=O)NO)no2)cc1 [CAY10603]; conditions: top dose 20 µM; top dose inferred
Method: as §1

CH5424802 = compound: CCc1cc2c(cc1N1CCC(N3CCOCC3)CC1)C(C)(C)c1[nH]c3cc(C#N)ccc3c1C2=O [CH5424802]; conditions: top dose 5.12 µM; top dose inferred
Method: as §1

Cell Line | AUC (XMD8-92) | IC50 (XMD8-92) | AUC (ACHP (KIN001-260)) | IC50 (ACHP (KIN001-260)) | AUC (CAY10603) | IC50 (CAY10603) | AUC (CH5424802) | IC50 (CH5424802)
RCC-FG2 (kidney, adherent) | 0.962 | > 10 µM | 0.967 | > 20 µM | 0.58 | 2.2 µM | 0.97 | > 5.12 µM
RCC-JF (kidney, adherent) | 0.933 | > 10 µM | 0.956 | > 20 µM | 0.376 | 0.544 µM | 0.956 | > 5.12 µM
RCC-JW (kidney, adherent) | 0.912 | > 10 µM | 0.952 | > 20 µM | 0.563 | 1.86 µM | 0.872 | 5.12 µM
RCC-MF (kidney, adherent) | 0.917 | > 10 µM | 0.944 | > 20 µM | 0.398 | 0.604 µM | 0.888 | > 5.12 µM
RCM-1 (large intestine, adherent) | 0.894 | > 10 µM | 0.984 | > 20 µM | 0.688 | 4.74 µM | 0.982 | > 5.12 µM
RERF-LC-KJ (lung adenocarcinoma, adherent) | 0.802 | 5.11 µM | 0.985 | > 20 µM | 0.846 | 15.3 µM | 0.986 | > 5.12 µM
RERF-LC-MS (lung adenocarcinoma, adherent) | 0.947 | > 10 µM | 0.977 | > 20 µM | 0.62 | 2.7 µM | 0.985 | > 5.12 µM
RERF-LC-Sq1 (lung squamous cell carcinoma, adherent) | 0.934 | > 10 µM | 0.975 | > 20 µM | 0.682 | 5.15 µM | 0.96 | > 5.12 µM
RH-1 (rhabdomyosarcoma, adherent) | 0.956 | > 10 µM | 0.893 | 16.9 µM | 0.248 | 0.274 µM | 0.984 | > 5.12 µM
RKN (ovary, adherent) | 0.896 | > 10 µM | 0.962 | > 20 µM | 0.594 | 2.29 µM | 0.979 | > 5.12 µM
RKO (large intestine, adherent) | 0.842 | 6.31 µM | 0.933 | > 20 µM | 0.49 | 1.18 µM | 0.87 | 4.17 µM
RL95-2 (endometrium, adherent) | 0.821 | 5.71 µM | 0.972 | > 20 µM | 0.422 | 0.764 µM | 0.987 | > 5.12 µM
RL (B-cell lymphoma, suspension) | 0.799 | 4.34 µM | 0.931 | > 20 µM | 0.375 | 0.583 µM | 0.989 | > 5.12 µM
RO82-W-1 (thyroid, adherent) | 0.913 | > 10 µM | 0.981 | > 20 µM | 0.593 | 2.42 µM | 0.983 | > 5.12 µM
RPMI-7951 (melanoma, adherent) | 0.929 | > 10 µM | 0.954 | > 20 µM | 0.397 | 0.66 µM | 0.962 | > 5.12 µM
RPMI-8402 (T-cell lymphoblastic leukaemia, suspension) | 0.876 | 7.25 µM | 0.832 | 10.1 µM | 0.172 | 0.161 µM | 0.957 | > 5.12 µM
RPMI-8866 (chronic myeloid leukaemia, suspension) | 0.874 | 8.52 µM | 0.797 | 8.68 µM | 0.226 | 0.215 µM | 0.988 | > 5.12 µM
RS4-11 (leukaemia, suspension) | 0.844 | 6.28 µM | 0.909 | > 20 µM | 0.229 | 0.223 µM | 0.978 | > 5.12 µM
RT4 (bladder, adherent) | 0.959 | > 10 µM | 0.986 | > 20 µM | 0.396 | 0.637 µM | 0.978 | > 5.12 µM
RVH-421 (melanoma, adherent) | 0.891 | > 10 µM | 0.942 | > 20 µM | 0.661 | 4.15 µM | 0.893 | > 5.12 µM
RXF393 (kidney, adherent) | 0.961 | > 10 µM | 0.888 | > 20 µM | 0.471 | 1.01 µM | 0.903 | > 5.12 µM
SBC-1 (small cell lung carcinoma, suspension) | 0.784 | 4.07 µM | 0.989 | > 20 µM | 0.391 | 0.636 µM | 0.989 | > 5.12 µM
SBC-3 (small cell lung carcinoma, adherent) | 0.794 | 4.13 µM | 0.893 | > 20 µM | 0.203 | 0.184 µM | 0.987 | > 5.12 µM
SCC-4 (head and neck, adherent) | 0.945 | > 10 µM | 0.97 | > 20 µM | 0.622 | 2.89 µM | 0.979 | > 5.12 µM
SCC-15 (head and neck, adherent) | 0.873 | > 10 µM | 0.962 | > 20 µM | 0.62 | 2.99 µM | 0.975 | > 5.12 µM
SF268 (glioma, adherent) | 0.918 | > 10 µM | 0.969 | > 20 µM | 0.395 | 0.629 µM | 0.971 | > 5.12 µM
SF295 (glioma, adherent) | 0.924 | > 10 µM | 0.985 | > 20 µM | 0.582 | 2.14 µM | 0.984 | > 5.12 µM
SH-4 (melanoma, adherent) | 0.921 | > 10 µM | 0.862 | > 20 µM | 0.826 | > 20 µM | 0.921 | > 5.12 µM
SHP-77 (small cell lung carcinoma, semi-adherent) | 0.991 | > 10 µM | 0.986 | > 20 µM | 0.561 | 1.8 µM | 0.988 | > 5.12 µM
SIMA (neuroblastoma, adherent) | 0.921 | > 10 µM | 0.923 | > 20 µM | 0.716 | 5.57 µM | 0.972 | > 5.12 µM

From the supplement of paper PMC4967469
